Reference: the supplement of paper PMC12578646, “Prodrug florfenicol amine is activated by intrinsic resistance to target Mycobacterium abscessus” (Nature Microbiology, 2025)
M. abscessus ATCC 19977 and its deletion, point and complemented mutants after 5 days of drug at 37 °C plus 24 h of resazurin. Growth in % of untreated wells at the dose given (lower = more inhibition); checkerboards give % inhibition (higher = more inhibition); IC50 from the fitted curve (lower = more potent). No active / inactive call. IC50 values come from the same 384-well curves. Growth is not capped and can exceed 100%. The direction of the checkerboard scale is read from the raw signals. Capreomycin is a mixture.

Tests used:
Assay in all cases: growth relative to untreated wells; higher = more growth
[1] = tested on: Mycobacterium abscessus ATCC 19977 Eis2 T258R with pOLYG-aac(3)IV-eis2
Protocol: (§1)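 Two-fold dose series, three replicates; 5 days at 37 °C, then 24 h with resazurin; fluorescence scaled to growth and killed controls.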

[2] = tested on: Mycobacterium abscessus ATCC 19977 Eis2 T258R with pOLYG-aac(3)IV
Protocol: as §1

[3] = tested on: Mycobacterium abscessus ATCC 19977 WhiB7 A51T with pOLYG-aac(3)IV-eis2
Protocol: as §1

[4] = tested on: Mycobacterium abscessus ATCC 19977 WhiB7 A51T with pOLYG-aac(3)IV
Protocol: as §1

[5] = tested on: Mycobacterium abscessus ATCC 19977 Δcat
Protocol: as §1

[6] = tested on: Mycobacterium abscessus ATCC 19977 Δeis2 with pOLYG-aac(3)IV-eis2
Protocol: as §1

[7] = tested on: Mycobacterium abscessus ATCC 19977 Δeis2 with pOLYG-aac(3)IV
Protocol: as §1

[8] = tested on: Mycobacterium abscessus ATCC 19977 ΔwhiB7 with pOLYG-aac(3)IV-eis2
Protocol: as §1

[9] = tested on: Mycobacterium abscessus ATCC 19977 ΔwhiB7 with pOLYG-aac(3)IV
Protocol: as §1

[10] = tested on: Mycobacterium abscessus ATCC 19977 ΔwhiB7
Protocol: as §1

[11] = tested on: Mycobacterium abscessus ATCC 19977
Protocol: as §1

N[C@H](CO)[C@H](O)c1ccc([N+](=O)[O-])cc1 [chloramphenicol amine]
Conditions	growth [%]
[1], 1 µg/mL	105
[1], 2 µg/mL	104
[1], 4 µg/mL	103
[1], 8 µg/mL	96.8
[1], 16 µg/mL	86.6
[1], 32 µg/mL	76.2
[1], 64 µg/mL	61.1
[1], 128 µg/mL	20.8
[1], 256 µg/mL	2.17
[1], 512 µg/mL	-0.201
[1], 1024 µg/mL	0.0843
[2], 1 µg/mL	91
[2], 2 µg/mL	104
[2], 4 µg/mL	104
[2], 8 µg/mL	98.4
[2], 16 µg/mL	97.3
[2], 32 µg/mL	88.9
[2], 64 µg/mL	99.5
[2], 128 µg/mL	99.9
[2], 256 µg/mL	101
[2], 512 µg/mL	91.36
[2], 1024 µg/mL	59
[3], 1 µg/mL	105
[3], 2 µg/mL	112
[3], 4 µg/mL	105
[3], 8 µg/mL	99.5
[3], 16 µg/mL	69.3
[3], 32 µg/mL	61.5
[3], 64 µg/mL	43.4
[3], 128 µg/mL	3.45
[3], 256 µg/mL	0.18
[3], 512 µg/mL	-0.129
[3], 1024 µg/mL	-1.35
[4], 1 µg/mL	101
[4], 2 µg/mL	103
[4], 4 µg/mL	103
[4], 8 µg/mL	103
[4], 16 µg/mL	98
[4], 32 µg/mL	94.44
[4], 64 µg/mL	106
[4], 128 µg/mL	86.8
[4], 256 µg/mL	76.8
[4], 512 µg/mL	56.8
[4], 1024 µg/mL	-1.63
[5], 1 µg/mL	96.8
[5], 2 µg/mL	93.7
[5], 4 µg/mL	74.9
[5], 8 µg/mL	50
[5], 16 µg/mL	36.7
[5], 32 µg/mL	23.3
[5], 64 µg/mL	0.503
[5], 128 µg/mL	-3.64
[5], 256 µg/mL	-3.7
[5], 512 µg/mL	-2.58
[6], 1 µg/mL	102
[6], 2 µg/mL	109.2
[6], 4 µg/mL	113
[6], 8 µg/mL	112
[6], 16 µg/mL	107
[6], 32 µg/mL	100
[6], 64 µg/mL	72.3
[6], 128 µg/mL	36.2
[6], 256 µg/mL	7.8
[6], 512 µg/mL	1.87
[6], 1024 µg/mL	0.535
[7], 1 µg/mL	90.4
[7], 2 µg/mL	94.1
[7], 4 µg/mL	103
[7], 8 µg/mL	95.6
[7], 16 µg/mL	81
[7], 32 µg/mL	78.1
[7], 64 µg/mL	94.1
[7], 128 µg/mL	98.7
[7], 256 µg/mL	108
[7], 512 µg/mL	84.1
[7], 1024 µg/mL	68.5
[8], 1 µg/mL	102
[8], 2 µg/mL	104
[8], 4 µg/mL	108
[8], 8 µg/mL	92.6
[8], 16 µg/mL	70.5
[8], 32 µg/mL	60.1
[8], 64 µg/mL	36.3
[8], 128 µg/mL	2.93
[8], 256 µg/mL	-0.111
[8], 512 µg/mL	-0.518
[8], 1024 µg/mL	-1.14
[9], 1 µg/mL	105
[9], 2 µg/mL	104
[9], 4 µg/mL	99.5
[9], 8 µg/mL	96.7
[9], 16 µg/mL	93.7
[9], 32 µg/mL	92.5
[9], 64 µg/mL	101
[9], 128 µg/mL	84.7
[9], 256 µg/mL	76.5
[9], 512 µg/mL	40.3
[9], 1024 µg/mL	1.32
[10], 1 µg/mL	87.5
[10], 2 µg/mL	98.8
[10], 4 µg/mL	101
[10], 8 µg/mL	92.1
[10], 16 µg/mL	101
[10], 32 µg/mL	113
[10], 64 µg/mL	109
[10], 128 µg/mL	105
[10], 256 µg/mL	66.6
[10], 512 µg/mL	12.9
[11], 1 µg/mL	99.1
[11], 2 µg/mL	105
[11], 4 µg/mL	102
[11], 8 µg/mL	106
[11], 16 µg/mL	114
[11], 32 µg/mL	100
[11], 64 µg/mL	94.8
[11], 128 µg/mL	76.6
[11], 256 µg/mL	3.5
[11], 512 µg/mL	-0.313
